# Laboratory results as given in the RNAGym collection of RNA variant scans (doi:10.7554/elife.90254).
# Read counts are not given, so values of variants with three or more changes are uncertain.
# B1: LINE1-mini (parent)
# chain: GGCAGAGCUCAACACAGCGUGGCAAAGUGGCUGUGGCUAGACUGCC
# Variants of: B1
# Experiment: self-cleavage, relative activity (ratio to wild type); higher = more cleavage; in vitro, sequencing; the parent is a self-cleaving ribozyme
row,Variant,self-cleavage
1,GGCAGAGCUCUAAACAGCGUUGCAAAGUGGCUGUGGAUAGACUGCC [A11U C13A G21U C37A],0
2,GGCAGAGCUCAACACAGCGUAGCAAAGUGGCUUUGGUUAGACUGCC [G21A G33U C37U],0.05
3,GGCAGAGCUACACACAGCGUGACAAAGUGGCUGUGGCUAGACUGCC [C10A A11C G22A],0.03
4,GGCAGAGCUCAGUACAGUCUGGCAAAGUGGAUGUGGCUAGACUGCC [A12G C13U C18U G19C C31A],0.04
5,GGCAGAGCUCAACACAGCGUGGCAAAUUUACUGUGGCUAGCCUGCC [G27U G29U G30A A41C],0.08
6,GGCAGAGCUCAAAAUAGCGUGACAAAGUGCAUGUAGCUAGACUGCC [C13A C15U G22A G30C C31A G35A],0.14
7,UGCAGAGCUCAACACAGCGUGGUUAAGUGGCUGUGGCUAGACUGCC [G1U C23U A24U],0.15
8,GGCAGAGCUGAACACACAGUGGCAAACUGGCUGUGGCUAGCCUGAC [C10G G17C C18A G27C A41C C45A],0
9,GGCAGAGCUCAACACGGCGUGGGAAAGUGGCUGUGGCUAUACUGCC [A16G C23G G40U],0
10,GGCAAAGCUCAACACAACGUGGCACAGUGGCUGUGGCUAGACUGCA [G5A G17A A25C C46A],0.04
11,GGCAGACCUCAACACACCGCGGCAAUGUGGCUGUGGCUAGACUGCC [G7C G17C U20C A26U],0.08
12,GGCAGAGCUCAAUACAGCGAGGCAAAGUGGCUGUGGCUAGACUGCA [C13U U20A C46A],0.53
13,GGCAGAGCUACACACAGCGUGGCAAAGGGGCUGUGCCUAGACUGCC [C10A A11C U28G G36C],0
14,UCCAGACCUCAUCACAGCGUGGCAAAGUGGCUGUGGCUAAACUGCC [G1U G2C G7C A12U G40A],0.08
15,GGCAGAGCUCAUCACAGCGUGGCAAAGUGGCUGUCGCUAGACGGCC [A12U G35C U43G],0.01
16,GGCUGAGCUCAACACAGCGUGGCAAAAAGGCUGUGGCUAGACUGCC [A4U G27A U28A],0.06
17,GGCAGAGCUCCAUACAGCGUGGCAAAGUGGCUGUGGCUAGACUUCC [A11C C13U G44U],0
18,GGCAUAGGUCAACACAGCGGGGCAAAGUGGCCGUGGCUAGACUUCC [G5U C8G U20G U32C G44U],0.03
19,GGGCAAGCACAACACAGCGUGGCAAAGUGGCUGUGGCUAGACUGCC [C3G A4C G5A U9A],0.18

row,Variant,self-cleavage
1,GGCAGAGCUCAACACAGCGUGGCAAAGUGGAUAUGGUUAGGCUGCC [C31A G33A C37U A41G],0.02
2,GGCAGAACUCAACACAGCGUGGCAAAGUGGCGGUGGCUAGACUACC [G7A U32G G44A],0.33
3,GGCAGAAAUAAACACAGAGUGGCAAAGUGGCUGUGGCUAGACUGUC [G7A C8A C10A C18A C45U],0.04
4,GCCUGAGCUCAACACAGCGUGGAAAAGUGGCUGUGGAUAGACUGCC [G2C A4U C23A C37A],0.05
5,GGCAGAGCUCAACACAGCGUGGCAAAGUGACUGUGGCUAGUCGGCC [G30A A41U U43G],0.19
6,GGCAGAGCUCAAAGCAGCGUGGCAAAGUAGCUGUGGCUAGACAGCC [C13A A14G G29A U43A],0.05
7,GGCAGGGCUCAACACAGCGUGGCAAAGUGGCUGAGGCUAGCAUGCC [A6G U34A A41C C42A],0.02
8,GGACGAGCUCAACACAGCGUGGCAAAAUGACUGUGGCUAGACUGCC [C3A A4C G27A G30A],0.13
9,GACAGAGCUCAACACAGCGUGGCAAACUGGCUGUGGCUAGACCGCC [G2A G27C U43C],0.11
10,GCCAUAGCUCAACACAGCGUGGCAAAGCGGCUAUUUCUAGAAUACC [G2C G5U U28C G33A G35U G36U C42A G44A],0.01
11,GGCAGAGAUCAACCCUGCGUGGCAAAGUGGCUGUGGCUAGACUGCC [C8A A14C A16U],0.18
12,GGCAGAGCUCAACACGGACUGGCAAAGUGGCUGUGGCUAGACUGCC [A16G C18A G19C],0.16
13,GCCAGAGCUCGACAAAGCGUGGUAAGGUGGCUGUGGCUAGACUGCC [G2C A11G C15A C23U A26G],0.02
14,GGCAGAGCUUAACAUAGCGUGGCAAAGUGGCUGUGGUUCGACUGCC [C10U C15U C37U A39C],0.03
15,GGCAGAGUUCAACACAAGUUGACAAAGUGGCUGUUGCUAGCCUGCC [C8U G17A C18G G19U G22A G35U A41C],0.02
16,GGCAGAGCUCAACCCAGCGUGGAAAAGUGGCUGUGGCGAGACUGCC [A14C C23A U38G],0.02
17,GGCAGAGCUCAACACAGCGUGGGAAAGUGGCUAUGGGAUGACUGCC [C23G G33A C37G U38A A39U],0.04
18,GGCAGAGCUCAACACAGUGUGGCAAAGGGGCUGGGGCUAGACUGCC [C18U U28G U34G],0.05
19,CGCAGAGCUAAACACAGCGUGGCAAAGUGGCUGUGGCUCGACUGCU [G1C C10A A39C C46U],0.01

row,Variant,self-cleavage
1,UGCAGAGCUCAAAACAGCGUGGCAAGGUGACUGCGGCUAGAUUGCC [G1U C13A A26G G30A U34C C42U],0.02
2,GGCAGAGCUCAGCACAGCGUGGCAAAGUAGCUGUGGCUAUACUUCC [A12G G29A G40U G44U],0.01
3,GGCAGAGCUCAACUCAGCGUGUCAAAGUGACUGUGACUAGAAUGCC [A14U G22U G30A G36A C42A],0.02
4,GGCAGUGCUCAACACAGCGUGGCAAAGUGGCUGUGGAUAGACUGCU [A6U C37A C46U],0.09
5,GGCAGAGCUCAACGCAGCGUGGCAAAGUUGCUGUAGCUAGACUGCC [A14G G29U G35A],0.07
6,GGCAGAACUCUACACAGCGUGGCAACGUGGCUGUGGAUAGAAUGAC [G7A A11U A26C C37A C42A C45A],0.01
7,AGCAGAGCUCAACAAAGCGUGGCAAAGUGGCUGUGCCUAGACUGCC [G1A C15A G36C],0.1
8,GGCAGAGCUCAACACAGCGCGGCAAAGUGGCUGUGGCUCUACUGCC [U20C A39C G40U],0.07
9,GGCAGAGCUCAACACAGAGUGGCAGCGUGGCCGUGGCUAGACUCAC [C18A A25G A26C U32C G44C C45A],0.01
10,GGGAGCGCUCAACACGGCGUGGCAAGGUGGCUGUGGCUAGACUGCC [C3G A6C A16G A26G],0.04
11,GGCAGAGCUCAACAGAGCGUGGAAAAGUCGCUGUGGCUAGACUGCC [C15G C23A G29C],0.99
12,CGCAGAGCUCAACAAAGCGUGGGAAAGUGGCUGUGGCAAGACUGCC [G1C C15A C23G U38A],0.04
13,GGCAGAGCUCAUCACAGCGUGGCAAAGUGUCUGUGGCUAAACCGCC [A12U G30U G40A U43C],0.04
14,GACAGCGCUCAAGACAGCGUGGCAAAGUGGCUGUGGCUGGACUUCC [G2A A6C C13G A39G G44U],0.05
15,GGCAGAGCUCAACACAGGGUGGCAAAGUGGCGGUGGGUAGGCUGUC [C18G U32G C37G A41G C45U],0.03
16,GGCAGAGCCCAACACAGCGUGGCAAAGUGUCGGUGGCUAGACUGCC [U9C G30U U32G],0.02
17,GGCAGAGCUCAACACAGCGUGGCAAAGUGGCUUUGGCUAGAUAGCC [G33U C42U U43A],0.06
18,GGCAGAGCACGACACAGCGUGGCAAAGUUGCUGUGGCUAGACUGCC [U9A A11G G29U],0.08
